{
  "source": "paper PMC4336329",
  "about": "(PLoS ONE, 2015)",
  "note": "About 2,200 (0.71%) of roughly 310,000 compounds showed an effect of 50% or more. Effects have a minus sign here. Some of the results follow.",
  "data": [
    {"biological_target": "human ether-à-go-go-related gene (hERG) potassium channel (human, UniProt Q12809)", "sequence (Q12809 whole entry, looked up)": "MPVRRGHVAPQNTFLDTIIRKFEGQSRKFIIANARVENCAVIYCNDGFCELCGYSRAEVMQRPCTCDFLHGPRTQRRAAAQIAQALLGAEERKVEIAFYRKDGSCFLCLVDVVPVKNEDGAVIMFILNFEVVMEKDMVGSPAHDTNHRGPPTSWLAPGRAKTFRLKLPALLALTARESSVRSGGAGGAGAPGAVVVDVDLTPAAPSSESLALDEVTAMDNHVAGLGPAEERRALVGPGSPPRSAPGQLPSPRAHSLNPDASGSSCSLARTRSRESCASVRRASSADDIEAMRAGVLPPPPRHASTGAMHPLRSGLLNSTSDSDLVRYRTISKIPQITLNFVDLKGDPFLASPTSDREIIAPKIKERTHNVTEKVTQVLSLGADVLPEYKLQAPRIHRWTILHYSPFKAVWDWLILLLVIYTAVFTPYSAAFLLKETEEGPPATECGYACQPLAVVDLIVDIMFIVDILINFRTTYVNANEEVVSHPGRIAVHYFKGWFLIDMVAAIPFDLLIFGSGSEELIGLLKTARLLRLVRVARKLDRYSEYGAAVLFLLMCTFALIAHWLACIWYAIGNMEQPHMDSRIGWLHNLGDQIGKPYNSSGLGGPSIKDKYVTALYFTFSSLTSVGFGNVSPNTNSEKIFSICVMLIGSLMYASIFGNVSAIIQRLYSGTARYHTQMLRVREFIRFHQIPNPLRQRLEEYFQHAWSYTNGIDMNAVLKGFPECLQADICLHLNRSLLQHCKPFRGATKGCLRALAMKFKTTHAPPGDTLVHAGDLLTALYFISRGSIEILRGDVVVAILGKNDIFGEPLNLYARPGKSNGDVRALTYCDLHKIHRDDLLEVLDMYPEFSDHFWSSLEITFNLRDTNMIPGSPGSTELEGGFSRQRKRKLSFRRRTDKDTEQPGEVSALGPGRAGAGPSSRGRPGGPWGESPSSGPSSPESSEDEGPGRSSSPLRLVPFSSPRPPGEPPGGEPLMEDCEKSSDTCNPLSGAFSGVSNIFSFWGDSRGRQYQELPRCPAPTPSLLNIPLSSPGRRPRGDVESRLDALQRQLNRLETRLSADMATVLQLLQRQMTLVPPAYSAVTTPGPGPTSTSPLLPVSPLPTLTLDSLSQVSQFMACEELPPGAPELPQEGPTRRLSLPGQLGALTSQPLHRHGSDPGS", "assay": "primary screen, population patch clamp on CHO cells stably expressing hERG", "units": {"hERG current change (%, negative = inhibition) at 1uM": "%"}, "values": [
      {"smiles": "Cc1cc(OCC(=O)NC(C)C)cc(C)c1Br", "hERG current change (%, negative = inhibition) at 1uM": 6.7},
      {"smiles": "COc1c(CC=C(C)C)cc(C2CC(=O)c3c(O)cc(O)cc3O2)cc1CC=C(C)C", "note": "(stereo not drawn)", "hERG current change (%, negative = inhibition) at 1uM": 2.68},
      {"smiles": "Cc1cc(C(=O)COc2ccc(-c3nnco3)cc2)c(C)n1Cc1ccccc1", "hERG current change (%, negative = inhibition) at 1uM": 4.45},
      {"smiles": "COc1cc(/C=C2\\SC(=S)N(C(C(=O)O)c3ccccc3)C2=O)ccc1O", "note": "(stereo not drawn)", "hERG current change (%, negative = inhibition) at 1uM": 0.123},
      {"smiles": "Cc1ccc(NC2=NC3(CCCCC3)N=C(N)N2)c(C)c1", "hERG current change (%, negative = inhibition) at 1uM": -3.95},
      {"smiles": "Cc1cc(=O)[nH]c(Nc2ccc(Cl)cc2)n1", "hERG current change (%, negative = inhibition) at 1uM": 22.6},
      {"smiles": "Cc1ccc(F)cc1NC(=O)C1C2CCC(O2)C1C(=O)O", "note": "(stereo not drawn)", "hERG current change (%, negative = inhibition) at 1uM": 13.3},
      {"smiles": "Cc1ccc(C)c(-n2c(SCC(=O)O)nc3sc4c(c3c2=O)CCCC4)c1", "hERG current change (%, negative = inhibition) at 1uM": 3.82},
      {"smiles": "O=C1CN(C(=O)COc2ccccc2)c2ccccc2N1", "hERG current change (%, negative = inhibition) at 1uM": 19.2},
      {"smiles": "COC(=O)C1=CN(C2CCCCC2)C=C(C(=O)OC)C1c1ccc2c(c1)OCO2", "hERG current change (%, negative = inhibition) at 1uM": 7.32},
      {"smiles": "Cc1ccc(CNC(=O)CNC(=S)N(Cc2ccccc2)Cc2cccnc2)cc1", "hERG current change (%, negative = inhibition) at 1uM": 8.32},
      {"smiles": "Cc1cccc(NC2=CC(=O)OC(C)C2)c1", "note": "(stereo not drawn)", "hERG current change (%, negative = inhibition) at 1uM": 8.35},
      {"smiles": "COC(=O)c1ccc(-n2ccnc2)cc1", "hERG current change (%, negative = inhibition) at 1uM": 13.6},
      {"smiles": "O=[N+]([O-])c1ccc(N2CCN(c3ccc(O)cc3)CC2)cn1", "hERG current change (%, negative = inhibition) at 1uM": -11.6},
      {"smiles": "COc1cccc(C(=O)Nc2ccc3c(c2)C(=O)N(CCC(=O)O)C3=O)c1", "hERG current change (%, negative = inhibition) at 1uM": 8.26},
      {"smiles": "COC(=O)c1ccc(N2C(=O)c3ccc(OC)c(OC)c3C2=O)cc1", "hERG current change (%, negative = inhibition) at 1uM": 1.5},
      {"smiles": "O=[N+]([O-])c1ccc(S(=O)(=O)Nc2nnc(C3CCCCC3)s2)cc1", "hERG current change (%, negative = inhibition) at 1uM": 10.8},
      {"smiles": "CC(C)n1c(COc2ccccc2)nc2ccccc21", "hERG current change (%, negative = inhibition) at 1uM": 13.7},
      {"smiles": "CC(Sc1nc2ccccc2[nH]1)C(=O)O", "note": "(stereo not drawn)", "hERG current change (%, negative = inhibition) at 1uM": 10.8},
      {"smiles": "COC(=O)c1cc(S(=O)(=O)NCc2ccccc2OC)cn1C", "hERG current change (%, negative = inhibition) at 1uM": 10.6},
      {"smiles": "COC(=O)c1ccc(C(=O)OC)c(NC2=NS(=O)(=O)c3ccccc32)c1", "hERG current change (%, negative = inhibition) at 1uM": 5.02},
      {"smiles": "Cc1ccc(S(=O)(=O)c2cc(C)cc(S(=O)(=O)Nc3ccc(C(=O)O)cc3)c2C)cc1", "hERG current change (%, negative = inhibition) at 1uM": 9.81},
      {"smiles": "O=C(COC(=O)c1ccncc1)NCCCc1ccccc1", "hERG current change (%, negative = inhibition) at 1uM": 10.9},
      {"smiles": "CCCCOC(=O)N1CCOCCOCCOCCOCC1", "hERG current change (%, negative = inhibition) at 1uM": -6.34},
      {"smiles": "O=C(NNC(=O)c1ccccc1O)c1ccc(Br)cc1", "hERG current change (%, negative = inhibition) at 1uM": 18.5},
      {"smiles": "O=C(COC(=O)c1c(Cl)cccc1Cl)Nc1ccccc1Br", "hERG current change (%, negative = inhibition) at 1uM": 12.7},
      {"smiles": "CCN1CCN(c2ccc(S(=O)(=O)N3CCOCC3)cc2NC(=O)CCOc2ccccc2)CC1", "hERG current change (%, negative = inhibition) at 1uM": -7.31},
      {"smiles": "CCCCCCOC(=O)C1=C(C)NC(=O)NC1c1ccc(O)cc1", "note": "(stereo not drawn)", "hERG current change (%, negative = inhibition) at 1uM": 2.67},
      {"smiles": "O=C(Nc1ccnn1C1CCN(Cc2cccnc2)CC1)c1ccccc1Cl", "hERG current change (%, negative = inhibition) at 1uM": -11.5},
      {"smiles": "C=CCn1c(SCc2ccc(C#N)cc2)nnc1-c1cccc(Cl)c1", "hERG current change (%, negative = inhibition) at 1uM": -46.8},
      {"smiles": "O=C(O)CCCNC(=O)Nc1ccccc1", "hERG current change (%, negative = inhibition) at 1uM": 18.2},
      {"smiles": "CC(C)CCN(C(=O)c1ccncc1)c1c(N)n(Cc2ccccc2)c(=O)[nH]c1=O", "hERG current change (%, negative = inhibition) at 1uM": 9.05},
      {"smiles": "O=C(c1ccc(O)c(Cl)c1)N1CCN(S(=O)(=O)c2ccccc2)CC1", "hERG current change (%, negative = inhibition) at 1uM": 9.96},
      {"smiles": "Cn1cccc1Cc1nnc(SCC(=O)N2CCc3ccccc32)n1-c1ccc(F)cc1", "hERG current change (%, negative = inhibition) at 1uM": 7.18},
      {"smiles": "C=CCOC(=O)/C(=C\\C=C\\c1ccccc1)NC(=O)c1ccccc1", "hERG current change (%, negative = inhibition) at 1uM": 1.06},
      {"smiles": "CCOc1ccc(NS(=O)(=O)c2ccc(C(=O)NCC3(N(C)C)CCCCC3)cc2)cc1", "hERG current change (%, negative = inhibition) at 1uM": 6.85},
      {"smiles": "CCNc1cc(S(=O)(=O)C(F)(F)F)ccc1N", "hERG current change (%, negative = inhibition) at 1uM": 9.29},
      {"smiles": "CSc1nsc(SCC(=O)Nc2ccccn2)n1", "hERG current change (%, negative = inhibition) at 1uM": 6.06},
      {"smiles": "CCc1c(-c2ccccc2)[n+](=O)c2c(n1[O-])CCC2", "hERG current change (%, negative = inhibition) at 1uM": 15.4},
      {"smiles": "CCCc1nc(NCc2ccncc2)c2nnn(Cc3ccccc3F)c2n1", "hERG current change (%, negative = inhibition) at 1uM": 12.2},
      {"smiles": "CCOC(=O)c1ccc2c(c1)NCc1cccc(OC)c1O2", "hERG current change (%, negative = inhibition) at 1uM": 9.49},
      {"smiles": "CC(=O)c1ccc(OCCOc2ccc(Cl)c3cccnc23)cc1", "hERG current change (%, negative = inhibition) at 1uM": 12.4},
      {"smiles": "CC(=O)n1ccnc1", "hERG current change (%, negative = inhibition) at 1uM": 13.9},
      {"smiles": "O=C(CCN1C(=O)COc2ccccc21)N1CCN(c2ccccn2)CC1", "hERG current change (%, negative = inhibition) at 1uM": -10.1},
      {"smiles": "CCn1c(C)nc([N+](=O)[O-])c1Sc1ccc(F)cc1", "hERG current change (%, negative = inhibition) at 1uM": 15.9},
      {"smiles": "CC1(C)Cc2nc(N)c(=O)sc2C1", "hERG current change (%, negative = inhibition) at 1uM": 17.1},
      {"smiles": "CCOC(=O)C1C(c2cc(OC)c(OC)c(OC)c2)NC(=S)NC1(O)C(F)(F)F", "note": "(stereo not drawn)", "hERG current change (%, negative = inhibition) at 1uM": 8.12},
      {"smiles": "CC1CCN(C(=S)c2cn(Cc3ccccc3F)c3ccccc23)CC1", "hERG current change (%, negative = inhibition) at 1uM": 15.8},
      {"smiles": "CC(=O)c1cc(-c2ccccc2)n(CC(=O)Nc2ccc(C)c(C)c2)c1C", "hERG current change (%, negative = inhibition) at 1uM": 18},
      {"smiles": "CC(=O)c1cnc(-c2cccc(Cl)c2)s1", "hERG current change (%, negative = inhibition) at 1uM": 9.4},
      {"smiles": "CCOC(=O)C1=C(N)Oc2c(oc(CO)cc2=O)C1c1ccc(F)cc1", "note": "(stereo not drawn)", "hERG current change (%, negative = inhibition) at 1uM": 4.19},
      {"smiles": "CC(C)C(c1nnnn1Cc1ccccc1)N1CCN(Cc2ccco2)CC1.Cl", "note": "(stereo not drawn)", "hERG current change (%, negative = inhibition) at 1uM": -3.3},
      {"smiles": "CCOc1ccc(NC(=O)CSc2nc(C)cc(C)n2)cc1", "hERG current change (%, negative = inhibition) at 1uM": 11.5},
      {"smiles": "Cc1c(/N=C/c2ccco2)n(Cc2ccccc2)c2ccccc12", "hERG current change (%, negative = inhibition) at 1uM": 7.22},
      {"smiles": "CCC(C)N1CC(=O)N2Cc3[nH]c4ccccc4c3C[C@H]2C1=O", "note": "(stereo partly drawn)", "hERG current change (%, negative = inhibition) at 1uM": 17},
      {"smiles": "Cc1cc(C)c(-c2csc(NC(=O)C3=NN(c4ccccc4)C(=O)CC3)n2)c(C)c1", "hERG current change (%, negative = inhibition) at 1uM": 2.34},
      {"smiles": "CC(C)(C)NC(=O)c1cccc2c1-c1ccccc1C2=O", "hERG current change (%, negative = inhibition) at 1uM": 12.2},
      {"smiles": "CCOC(=O)CSc1nnc2n1C(C)(C)Cc1ccccc1-2", "hERG current change (%, negative = inhibition) at 1uM": 4.58},
      {"smiles": "Cc1ccc2nc3c(cc(C(=O)NCc4ccco4)c(=N)n3C3CCCC3)c(=O)n2c1", "hERG current change (%, negative = inhibition) at 1uM": -83.2},
      {"smiles": "O=C(NCCN1CCOCC1)c1ccc2c(c1)N(Cc1ccc(Cl)cc1)C(=O)CS2", "hERG current change (%, negative = inhibition) at 1uM": 2.58}
    ]}
  ]
}
